The campaign covered roughly 310,000 compounds. About 2,200 (0.71%) showed an effect of 50% or more. Effects have a minus sign here. Some of the results follow.
These compounds were tested against human ether-à-go-go-related gene (hERG) potassium channel (human, UniProt Q12809) (assay: primary screen, population patch clamp on CHO cells stably expressing hERG).
human ether-à-go-go-related gene (hERG) potassium channel, sequence (Q12809 whole entry, looked up): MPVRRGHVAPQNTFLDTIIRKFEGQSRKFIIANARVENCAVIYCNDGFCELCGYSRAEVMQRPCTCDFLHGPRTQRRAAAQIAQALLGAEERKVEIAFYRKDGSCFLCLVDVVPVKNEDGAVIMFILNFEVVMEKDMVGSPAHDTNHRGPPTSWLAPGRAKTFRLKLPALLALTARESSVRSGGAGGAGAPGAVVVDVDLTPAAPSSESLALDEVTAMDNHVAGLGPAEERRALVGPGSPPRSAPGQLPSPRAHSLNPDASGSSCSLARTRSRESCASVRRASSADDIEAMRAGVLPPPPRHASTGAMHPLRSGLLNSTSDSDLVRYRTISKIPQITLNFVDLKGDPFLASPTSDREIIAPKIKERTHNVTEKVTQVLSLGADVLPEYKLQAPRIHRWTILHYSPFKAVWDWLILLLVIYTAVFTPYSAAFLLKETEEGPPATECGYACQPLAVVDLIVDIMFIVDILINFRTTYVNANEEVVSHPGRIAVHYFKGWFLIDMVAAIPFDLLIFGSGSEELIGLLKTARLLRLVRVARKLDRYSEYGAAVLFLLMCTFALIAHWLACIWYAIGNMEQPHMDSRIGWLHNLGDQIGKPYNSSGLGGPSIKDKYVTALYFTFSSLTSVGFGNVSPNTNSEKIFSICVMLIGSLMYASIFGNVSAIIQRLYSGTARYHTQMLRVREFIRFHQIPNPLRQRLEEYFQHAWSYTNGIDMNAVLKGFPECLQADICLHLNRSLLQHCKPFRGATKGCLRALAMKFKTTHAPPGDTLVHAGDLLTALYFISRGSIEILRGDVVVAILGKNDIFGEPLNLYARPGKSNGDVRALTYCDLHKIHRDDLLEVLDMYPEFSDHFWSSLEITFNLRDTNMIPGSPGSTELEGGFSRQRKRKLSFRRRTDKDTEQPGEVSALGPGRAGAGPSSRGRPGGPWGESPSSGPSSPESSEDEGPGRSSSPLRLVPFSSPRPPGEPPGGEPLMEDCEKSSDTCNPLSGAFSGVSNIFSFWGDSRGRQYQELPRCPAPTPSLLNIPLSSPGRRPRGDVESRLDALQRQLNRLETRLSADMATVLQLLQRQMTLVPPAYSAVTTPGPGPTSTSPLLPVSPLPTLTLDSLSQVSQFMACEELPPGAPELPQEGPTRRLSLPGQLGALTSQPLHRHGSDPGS
For `CCC(=O)Nc1ccc(C(=O)NNC(=O)C(c2ccccc2)c2ccccc2)cc1`, the “hERG current change (%, negative = inhibition) at 1uM” value was 9.4%. With `O=S(=O)(NCC(c1ccc2c(c1)OCO2)N1CCOCC1)c1ccc(F)cc1` (stereo not shown) the “hERG current change (%, negative = inhibition) at 1uM” value was 8.44%. `COc1cc(NC(=S)Nc2cccnc2)cc(OC)c1OC` was tested, and the “hERG current change (%, negative = inhibition) at 1uM” value was 14.1%. For `COc1ccc(C(=O)NNC(=O)c2ccc(S(=O)(=O)N3CC(C)OC(C)C3)cc2)cc1` (stereo not shown), the “hERG current change (%, negative = inhibition) at 1uM” value was 10.9%. With `COc1ccc2c(c1)c(CC(=O)OCC(=O)N(C)C)c(C)n2C(=O)c1ccc(Cl)cc1` the “hERG current change (%, negative = inhibition) at 1uM” value was 3.65%. `CC(C)c1ccc(/C=C/C(=O)N2CCOCC2)cc1` was tested, and the “hERG current change (%, negative = inhibition) at 1uM” value was 8.02%. `Cc1ccc(C2CC(c3ccccc3Cl)n3nc(N)nc3N2)cc1` (stereo not shown) was tested, and the “hERG current change (%, negative = inhibition) at 1uM” value was 6.96%. `COc1ccc(CCN=CC2=C(O)CC(C)(C)CC2=O)cc1` was tested, and the “hERG current change (%, negative = inhibition) at 1uM” value was 13%. With `Nc1nc(SCC(=O)Nc2ccc(Cl)c(S(=O)(=O)N3CCOCC3)c2)n[nH]1` the “hERG current change (%, negative = inhibition) at 1uM” value was 10.2%. `O=C1c2ccccc2NC(c2ccc3c(c2)OCO3)N1O` (stereo not shown) was tested, and the “hERG current change (%, negative = inhibition) at 1uM” value was 9.49%. In the case of `O=[N+]([O-])c1ccc(CN2CCN(Cc3c[nH]c4ccccc34)CC2)cc1`, the “hERG current change (%, negative = inhibition) at 1uM” value is reported as -73.7%. `Cc1[nH]n(-c2ccccc2)c(=O)c1CCO` was tested, and the “hERG current change (%, negative = inhibition) at 1uM” value was 9.44%. For `O=C(CSc1nnc(-c2ccncc2)n1-c1ccc(F)cc1)NC(=O)NCc1ccco1`, the “hERG current change (%, negative = inhibition) at 1uM” value was -10%. With `COc1ccccc1CCC(=O)Nc1ccc2c(c1)CN(CCCn1cccn1)CC2` the “hERG current change (%, negative = inhibition) at 1uM” value was 10.1%. `Cc1ccc(OCCSc2nnc(-c3cccs3)n2C)cc1` was tested, and the “hERG current change (%, negative = inhibition) at 1uM” value was -10.8%. For `COC(=O)CSc1nnc(CNC(=O)c2ccc(S(=O)(=O)N3CCOCC3)cc2)n1C`, the “hERG current change (%, negative = inhibition) at 1uM” value was 11.5%. `COc1ccc(Oc2nc3c(c(=O)n(C)c(=O)n3C)n2Cc2cccc(OC)c2)cc1` was tested, and the “hERG current change (%, negative = inhibition) at 1uM” value was 10.1%. With `Cc1cccc2c1Sc1ccccc1CC2=O` the “hERG current change (%, negative = inhibition) at 1uM” value was 4.66%. With `COc1ccc(CN2CCN(C(=O)Cc3ccccc3)CC2)c(OC)c1` the “hERG current change (%, negative = inhibition) at 1uM” value was -6.17%. With `Cc1cc(N2CCCC2)nc(SCC(=O)c2ccccc2)n1` the “hERG current change (%, negative = inhibition) at 1uM” value was 10.8%. For `COc1ccc(/C=C/C(=O)c2ccc(O)cc2)cc1CN1CCOCC1`, the “hERG current change (%, negative = inhibition) at 1uM” value was -0.668%. In the case of `Brc1ccc(-c2csc(NC3=NCCCCC3)n2)cc1`, the “hERG current change (%, negative = inhibition) at 1uM” value is reported as 2.39%. In the case of `CCN(CC(=O)NCc1cccs1)S(=O)(=O)c1ccccc1Cl`, the “hERG current change (%, negative = inhibition) at 1uM” value is reported as 9.29%. `Cc1nc(-c2ccccn2)sc1C(=O)Nc1ccc(Cl)c(Cl)c1` was tested, and the “hERG current change (%, negative = inhibition) at 1uM” value was -9.41%. In the case of `Cc1cc(C)c2cc(C#N)c(SCC(=O)NCc3ccco3)nc2c1`, the “hERG current change (%, negative = inhibition) at 1uM” value is reported as 8.51%. `COc1ccc(OC)c(C2CC(=O)N3CN(c4ccccc4)CSC3=C2C#N)c1` (stereo not shown) was tested, and the “hERG current change (%, negative = inhibition) at 1uM” value was 11.2%. `COc1ccc(CNCc2cc(Cl)ccc2O)cc1.Cl` was tested, and the “hERG current change (%, negative = inhibition) at 1uM” value was 1.1%. In the case of `COc1ccc(CCN=C(N)NS(=O)(=O)c2ccc(C)cc2)cc1OC`, the “hERG current change (%, negative = inhibition) at 1uM” value is reported as 1.59%. In the case of `O=C(CN1C(=O)NC2(CCCCCC2)C1=O)NCc1ccco1`, the “hERG current change (%, negative = inhibition) at 1uM” value is reported as 12.2%. For `COc1cc(CNCCc2c[nH]c3ccccc23)cc(OC)c1.O=C(O)C(=O)O`, the “hERG current change (%, negative = inhibition) at 1uM” value was 5.07%. In the case of `COc1cc2cc(CCOC(=O)N3CCCCC3)oc(=O)c2cc1OC`, the “hERG current change (%, negative = inhibition) at 1uM” value is reported as 8.94%. In the case of `COc1cccc(C(=O)N2CCN(Cc3cc(Br)ccc3OC)CC2)c1.O=C(O)C(=O)O`, the “hERG current change (%, negative = inhibition) at 1uM” value is reported as -3.91%. `COCCCNC(=O)CCCOc1ccccc1` was tested, and the “hERG current change (%, negative = inhibition) at 1uM” value was -0.627%. With `Cc1ccc(N2CC(C(=O)N3CCC(C(=O)Nc4nnc(C(C)C)s4)CC3)CC2=O)cc1` (stereo not shown) the “hERG current change (%, negative = inhibition) at 1uM” value was 12.4%. For `O=C(COc1ccccc1[N+](=O)[O-])Nc1ccc(CN2CCOCC2)cc1`, the “hERG current change (%, negative = inhibition) at 1uM” value was -1.3%. With `COc1ccc(NC(=O)c2c(OC)cccc2OC)c(OC)c1` the “hERG current change (%, negative = inhibition) at 1uM” value was 10.4%. `CCN1CC2=C(OC(N)=C(C#N)C2c2cccs2)/C(=C\c2cccs2)C1` (stereo not shown) was tested, and the “hERG current change (%, negative = inhibition) at 1uM” value was 10.4%. `Cc1ccc(S(=O)(=O)NCCCn2ccnc2)cc1` was tested, and the “hERG current change (%, negative = inhibition) at 1uM” value was 10.5%. With `O=C(c1cc(-c2cccc(Cl)c2)on1)N1CCOCC1` the “hERG current change (%, negative = inhibition) at 1uM” value was 13.4%. In the case of `O=C(CCCN1C(=O)/C(=C/c2ccccc2Cl)SC1=S)NNC(=O)c1cccnc1`, the “hERG current change (%, negative = inhibition) at 1uM” value is reported as 11.9%. With `O=C(Nc1cc(Cl)ccc1O)C1CC(c2ccccc2Cl)=NO1` (stereo not shown) the “hERG current change (%, negative = inhibition) at 1uM” value was 17.3%. With `O=C(CC1Nc2ccccc2NC1=O)Nc1ccc2c(c1)OCO2` (stereo not shown) the “hERG current change (%, negative = inhibition) at 1uM” value was 14.5%. With `CCOC(=O)c1cccc(NC(=O)c2cccnc2)c1` the “hERG current change (%, negative = inhibition) at 1uM” value was -4.05%. With `Cl.NC(CCC(=O)O)C(=O)O` (stereo not shown) the “hERG current change (%, negative = inhibition) at 1uM” value was 13.7%. With `CC1CCc2c(C(=O)NCCN3CCOCC3)csc2C1` (stereo not shown) the “hERG current change (%, negative = inhibition) at 1uM” value was 9.44%. In the case of `CC(C)CC(=O)Nc1nnc(-c2ccco2)s1`, the “hERG current change (%, negative = inhibition) at 1uM” value is reported as -0.073%. With `COc1ccc(CNC(=O)c2ccc(CN3CCOCC3)cc2)cc1` the “hERG current change (%, negative = inhibition) at 1uM” value was 9.3%. For `COc1ccc(Br)cc1CNC(=O)C1CCCN(c2nc3ccccc3o2)C1` (stereo not shown), the “hERG current change (%, negative = inhibition) at 1uM” value was 2.43%. With `CCCc1ccc(-c2cc(C(=O)N/N=C/c3ccc([N+](=O)[O-])o3)c3ccccc3n2)cc1` the “hERG current change (%, negative = inhibition) at 1uM” value was 2.64%. For `O=C(NCC1CCN(S(=O)(=O)c2ccccc2)CC1)Nc1ccccc1`, the “hERG current change (%, negative = inhibition) at 1uM” value was 16.7%. In the case of `COc1ccc(-n2nc(C(=O)NCC(=O)NCC3COc4ccccc4O3)c3ccccc3c2=O)c(OC)c1` (stereo not shown), the “hERG current change (%, negative = inhibition) at 1uM” value is reported as 0.112%. For `Cc1cc2cc(CNC(=O)c3ccc(Br)o3)ccc2[nH]1`, the “hERG current change (%, negative = inhibition) at 1uM” value was -6.57%. With `COCCSc1nnc(NC(=O)C2CCCO2)s1` (stereo not shown) the “hERG current change (%, negative = inhibition) at 1uM” value was 10.1%. In the case of `Cc1[nH][nH]c(=O)c1[C@@H](c1ccccc1[N+](=O)[O-])C(C#N)C#N`, the “hERG current change (%, negative = inhibition) at 1uM” value is reported as 13%. `COc1ccc(NC(=O)COC(=O)c2c3c(nc4ccccc24)CCCC3)cc1Cl` was tested, and the “hERG current change (%, negative = inhibition) at 1uM” value was 12.9%. In the case of `Cn1c(SCC(=O)NCc2cccs2)nnc1-c1ccncc1`, the “hERG current change (%, negative = inhibition) at 1uM” value is reported as 12.8%. With `O=C(CCCn1c(=O)oc2ccccc21)NC1CCCCCC1` the “hERG current change (%, negative = inhibition) at 1uM” value was 12.2%. For `CN(C)CCN(C(=O)c1ccc2ccccc2c1)c1nc2cc3c(cc2s1)OCCO3.Cl`, the “hERG current change (%, negative = inhibition) at 1uM” value was 10.2%.

From publication PMC4336329 (PLoS ONE, 2015)
